# Measured values taken from the supplement of paper PMC11880418.
# Counter-ions that a name gives are not always drawn. Some of the results follow. The data scatter; read single values as rough.
# System: MKN45
# Test: ALDHbr (CSC) cell proportion score relative to DMSO vehicle (ratio to DMSO); breast (SUM159) / gastric (MKN45) / pancreatic (PANC1) / colon cancer lines; ALDHbr cells have high ALDH activity and are rich in cancer stem cells (CSC); higher = more CSC (ALDHbr) cells remaining
# Details: 10 µM; 72 h
# 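Further: High-content imaging of ALDEFLUOR-stained cells with Hoechst-labelled nuclei in 384-well plates, triplicate wells, scored as Z-score against 0.1% DMSO vehicle, negative meaning fewer ALDHbr cells.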
row,Compound,ALDHbr
1,CC(C)(C)NCC(O)c1cc(Cl)c(N)c(Cl)c1 (centres undefined) [Clenbuterol hydrochloride],1.03
2,CNC(=O)Oc1ccc2c(c1)[C@]1(C)CCN(C)[C@@H]1N2C [Eserine hemisulfate salt],1.03
3,CN1[C@@H]2C[C@@H](OC(=O)[C@H](CO)c3ccccc3)C[C@H]1[C@@H]1O[C@@H]12 [Scopolamine hydrochloride],1.24
4,CCN[C@@H](C)Cc1cccc(C(F)(F)F)c1 [Dexfenfluramine hydrochloride],1.07
5,O=C(CCCN1CCC2(CC1)C(=O)NCN2c1ccccc1)c1ccc(F)cc1 [Spiperone],1.54
6,CN1C[C@H](C(=O)N[C@]2(C)O[C@@]3(O)[C@@H]4CCCN4C(=O)[C@H](Cc4ccccc4)N3C2=O)C[C@@H]2c3cccc4[nH]cc(c34)C[C@H]21 [Dihydroergotamine tartrate],0.807
7,CN1C[C@H](CNC(=O)OCc2ccccc2)C[C@@H]2c3cccc4c3c(cn4C)C[C@H]21 [Metergoline],0.953
8,C#C[C@]1(O)CC[C@H]2[C@@H]3CCC4=CC(=O)CCC4=C3C=C[C@@]21CC [Gestrinone],0.788
9,Clc1ccc(C(OCCN2CCCCC2)c2ccccc2)cc1 (centres undefined) [Cloperastine hydrochloride],0.9
10,O=c1[nH]c2ccccc2n1CCCN1CCC(n2c(=O)[nH]c3cc(Cl)ccc32)CC1 [Domperidone],0.976
11,Fc1ccc(C(OCCN2CCN(CCCc3ccccc3)CC2)c2ccc(F)cc2)cc1,0.268
12,CC(C)CC(N(C)C)C1(c2ccc(Cl)cc2)CCC1 (centres undefined) [Sibutramine hydrochloride],1.03
13,C[C@]12CCC(=O)C=C1CC[C@@H]1[C@@H]2C(=O)C[C@]2(C)C(=O)CC[C@@H]12 [Adrenosterone],0.338
14,"NCC(CC(=O)O)c1ccc(Cl)cc1 (racemic) [Baclofen (R,S)]",0.905
15,C[C@]12CC[C@@H](O)C[C@@H]1CC[C@@H]1[C@@H]2CC[C@]2(C)C(=O)CC[C@@H]12 [Androsterone],0.87
16,CCCC(C)(COC(N)=O)COC(=O)NC(C)C (centres undefined) [Carisoprodol],0.936
17,CC(=O)OCC(=O)[C@H]1CC[C@H]2[C@@H]3CC[C@H]4C[C@H](O)CC[C@]4(C)[C@H]3C(=O)C[C@]12C [Alfadolone acetate],1.06
18,C[C@H](N)[C@H](O)c1ccc(O)c(O)c1 [Levonordefrin],1.03
19,NC(=O)C[S+]([O-])C(c1ccccc1)c1ccccc1 (centres undefined) [Modafinil],0.945
20,NC(=O)CN1CCCC1=O [Piracetam],1.08
21,CC(O)(CS(=O)(=O)c1ccc(F)cc1)C(=O)Nc1ccc(C#N)c(C(F)(F)F)c1 (centres undefined) [Bicalutamide],0.881
22,O=c1[nH]oc2c1CCNC2 [THIP Hydrochloride],1.14
23,C[C@@H]1CC[C@H]2[C@@H](C)C(=O)O[C@@H]3O[C@@]4(C)CC[C@@H]1[C@]32OO4 [Artemisinin],0.786
24,C[N+]1([O-])[C@@H]2C[C@@H](OC(=O)[C@H](CO)c3ccccc3)C[C@H]1[C@@H]1O[C@@H]12 (some centres undefined) [Scopolamin-N-oxide hydrobromide],1.17
